Data on 63 sequences can be found in publication PMC12820563.

The list shows a part of the results. The list includes weakly bound sequences.

This experiment has as its target T1, MBP-FoxP3dN (UniProt Q99JB6).
T1 sequence: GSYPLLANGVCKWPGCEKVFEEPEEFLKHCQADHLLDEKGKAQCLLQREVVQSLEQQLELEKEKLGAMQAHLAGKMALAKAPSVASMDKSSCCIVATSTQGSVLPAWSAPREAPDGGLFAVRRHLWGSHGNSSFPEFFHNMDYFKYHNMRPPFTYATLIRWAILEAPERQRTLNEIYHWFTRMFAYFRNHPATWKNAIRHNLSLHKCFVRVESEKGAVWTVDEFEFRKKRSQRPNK
In words: PD-seq (MBP pull-down with sequencing). The following applies: 20 mM Tris-HCl pH 7.5, 100 mM NaCl, 1.5 mM MgCl2, 0.4 uM protein, 0.1 uM dsDNA library, 30 min, room temperature, amylose pull-down; high values mean tight binding; double strand, one strand shown.
For “GATGATTGTTCTCCCAGCTGATGAATTGAGTAGTTCGAGTAAACAAATTTTCCTAATCTTTCTGTTCAAGCGCCATCTAC”, the binding signal (RPM ratio (pull-down/input)) amounted to 0.963. As for “GATGATTGTTCTCCCAGCTGATGAATTCGTGCTATCGAGTAAACAAATTTTCCTAATCTTTCTGTTCAAGCGCCATCTAC”, the figure is 0.826; as for “GATGATTGTTCTCCCAGCTGATGAATTGTGGTACTCGAGTAAACAAATTTTCCTAATCTTTCTGTTCAAGCGCCATCTAC”, 1.06. The figure for “GATGATTGTTCTCCCAGCTGATGAATTCGCGCAATCGAGTAAACAAATTTTCCTAATCTTTCTGTTCAAGCGCCATCTAC” is 3.15; for “GATGATTGTTCTCCCAGCTGATGAATTTACTTAATCGAGTAAACAAATTTTCCTAATCTTTCTGTTCAAGCGCCATCTAC” it is 0.407. As for “GATGATTGTTCTCCCAGCTGATGAATTGCCAGGATCGAGTAAACAAATTTTCCTAATCTTTCTGTTCAAGCGCCATCTAC”, the figure is 0.413; as for “GATGATTGTTCTCCCAGCTGATGAATTAGCCACCTCGAGTAAACAAATTTTCCTAATCTTTCTGTTCAAGCGCCATCTAC”, 0.858; as for “GATGATTGTTCTCCCAGCTGATGAATTAAGTCATTCGAGTAAACAAATTTTCCTAATCTTTCTGTTCAAGCGCCATCTAC”, 1.01. On to “GATGATTGTTCTCCCAGCTGATGAATTGACGCATTCGAGTAAACAAATTTTCCTAATCTTTCTGTTCAAGCGCCATCTAC”, for which the binding signal (RPM ratio (pull-down/input)) is 5.74. “GATGATTGTTCTCCCAGCTGATGAATTCCGAGCATCGAGTAAACAAATTTTCCTAATCTTTCTGTTCAAGCGCCATCTAC”: the binding signal (RPM ratio (pull-down/input)) turned out to be 0.611. As for “GATGATTGTTCTCCCAGCTGATGAATTGTTCGCTTCGAGTAAACAAATTTTCCTAATCTTTCTGTTCAAGCGCCATCTAC”, the figure is 0.439; as for “GATGATTGTTCTCCCAGCTGATGAATTAACTCTGTCGAGTAAACAAATTTTCCTAATCTTTCTGTTCAAGCGCCATCTAC”, 0.263; as for “GATGATTGTTCTCCCAGCTGATGAATTCGCTGGTTCGAGTAAACAAATTTTCCTAATCTTTCTGTTCAAGCGCCATCTAC”, 0.785.

Take “GATGATTGTTCTCCCAGCTGATGAATTGGTCTACTCGAGTAAACAAATTTTCCTAATCTTTCTGTTCAAGCGCCATCTAC”: the binding signal (RPM ratio (pull-down/input)) worked out at 0.665.

As for “GATGATTGTTCTCCCAGCTGATGAATTTCTTCGATCGAGTAAACAAATTTTCCTAATCTTTCTGTTCAAGCGCCATCTAC”, the binding signal (RPM ratio (pull-down/input)) was 0.187. As for “GATGATTGTTCTCCCAGCTGATGAATTACAAGTATCGAGTAAACAAATTTTCCTAATCTTTCTGTTCAAGCGCCATCTAC”, the figure is 0.725; as for “GATGATTGTTCTCCCAGCTGATGAATTTTTAGTGTCGAGTAAACAAATTTTCCTAATCTTTCTGTTCAAGCGCCATCTAC”, 0.426.

With “GATGATTGTTCTCCCAGCTGATGAATTTCACGAATCGAGTAAACAAATTTTCCTAATCTTTCTGTTCAAGCGCCATCTAC”, the binding signal (RPM ratio (pull-down/input)) was found to be 0.212.

Consider “GATGATTGTTCTCCCAGCTGATGAATTTCAACCTTCGAGTAAACAAATTTTCCTAATCTTTCTGTTCAAGCGCCATCTAC”, for which the binding signal (RPM ratio (pull-down/input)) is 0.26. Take “GATGATTGTTCTCCCAGCTGATGAATTGTTCGTGTCGAGTAAACAAATTTTCCTAATCTTTCTGTTCAAGCGCCATCTAC”: the binding signal (RPM ratio (pull-down/input)) was 0.582. With “GATGATTGTTCTCCCAGCTGATGAATTGGTATGTTCGAGTAAACAAATTTTCCTAATCTTTCTGTTCAAGCGCCATCTAC”, the binding signal (RPM ratio (pull-down/input)) is 2.35. Take “GATGATTGTTCTCCCAGCTGATGAATTGAACCCCTCGAGTAAACAAATTTTCCTAATCTTTCTGTTCAAGCGCCATCTAC”: the binding signal (RPM ratio (pull-down/input)) was 0.277. As to “GATGATTGTTCTCCCAGCTGATGAATTTATGCAGTCGAGTAAACAAATTTTCCTAATCTTTCTGTTCAAGCGCCATCTAC”, the binding signal (RPM ratio (pull-down/input)) amounted to 1.1. As for “GATGATTGTTCTCCCAGCTGATGAATTCTTTAAGTCGAGTAAACAAATTTTCCTAATCTTTCTGTTCAAGCGCCATCTAC”, the figure is 0.174; as for “GATGATTGTTCTCCCAGCTGATGAATTTAACGCTTCGAGTAAACAAATTTTCCTAATCTTTCTGTTCAAGCGCCATCTAC”, 0.534; as for “GATGATTGTTCTCCCAGCTGATGAATTCCAGTAGTCGAGTAAACAAATTTTCCTAATCTTTCTGTTCAAGCGCCATCTAC”, 0.339. “GATGATTGTTCTCCCAGCTGATGAATTCCCCGCCTCGAGTAAACAAATTTTCCTAATCTTTCTGTTCAAGCGCCATCTAC”: the binding signal (RPM ratio (pull-down/input)) was 0.403.

On to “GATGATTGTTCTCCCAGCTGATGAATTAACGCTGTCGAGTAAACAAATTTTCCTAATCTTTCTGTTCAAGCGCCATCTAC”, for which the binding signal (RPM ratio (pull-down/input)) was determined as 0.621.

On to “GATGATTGTTCTCCCAGCTGATGAATTGACGAAGTCGAGTAAACAAATTTTCCTAATCTTTCTGTTCAAGCGCCATCTAC”, for which the binding signal (RPM ratio (pull-down/input)) was 0.223.

In the case of “GATGATTGTTCTCCCAGCTGATGAATTCCTGGTGTCGAGTAAACAAATTTTCCTAATCTTTCTGTTCAAGCGCCATCTAC”, the binding signal (RPM ratio (pull-down/input)) turned out to be 0.321. With “GATGATTGTTCTCCCAGCTGATGAATTGAGTGAATCGAGTAAACAAATTTTCCTAATCTTTCTGTTCAAGCGCCATCTAC”, the binding signal (RPM ratio (pull-down/input)) amounted to 0.333. As to “GATGATTGTTCTCCCAGCTGATGAATTTGTCACTTCGAGTAAACAAATTTTCCTAATCTTTCTGTTCAAGCGCCATCTAC”, the binding signal (RPM ratio (pull-down/input)) came out at 5.39. The figure for “GATGATTGTTCTCCCAGCTGATGAATTACCATACTCGAGTAAACAAATTTTCCTAATCTTTCTGTTCAAGCGCCATCTAC” is 0.427; for “GATGATTGTTCTCCCAGCTGATGAATTCGAGACGTCGAGTAAACAAATTTTCCTAATCTTTCTGTTCAAGCGCCATCTAC” it is 0.277; for “GATGATTGTTCTCCCAGCTGATGAATTATGGTATTCGAGTAAACAAATTTTCCTAATCTTTCTGTTCAAGCGCCATCTAC” it is 1.62. As for “GATGATTGTTCTCCCAGCTGATGAATTGCCCGAATCGAGTAAACAAATTTTCCTAATCTTTCTGTTCAAGCGCCATCTAC”, the figure is 0.311; as for “GATGATTGTTCTCCCAGCTGATGAATTTCCGGTCTCGAGTAAACAAATTTTCCTAATCTTTCTGTTCAAGCGCCATCTAC”, 0.32. As for “GATGATTGTTCTCCCAGCTGATGAATTTTTCATGTCGAGTAAACAAATTTTCCTAATCTTTCTGTTCAAGCGCCATCTAC”, the figure is 0.271; as for “GATGATTGTTCTCCCAGCTGATGAATTTCATACGTCGAGTAAACAAATTTTCCTAATCTTTCTGTTCAAGCGCCATCTAC”, 0.418; as for “GATGATTGTTCTCCCAGCTGATGAATTGGCACTATCGAGTAAACAAATTTTCCTAATCTTTCTGTTCAAGCGCCATCTAC”, 0.509. With “GATGATTGTTCTCCCAGCTGATGAATTCCGGCCATCGAGTAAACAAATTTTCCTAATCTTTCTGTTCAAGCGCCATCTAC”, the binding signal (RPM ratio (pull-down/input)) is 1.02. In the case of “GATGATTGTTCTCCCAGCTGATGAATTAGGTTAATCGAGTAAACAAATTTTCCTAATCTTTCTGTTCAAGCGCCATCTAC”, the binding signal (RPM ratio (pull-down/input)) is 0.369. As for “GATGATTGTTCTCCCAGCTGATGAATTCCGTTAATCGAGTAAACAAATTTTCCTAATCTTTCTGTTCAAGCGCCATCTAC”, the binding signal (RPM ratio (pull-down/input)) came out at 0.357. As for “GATGATTGTTCTCCCAGCTGATGAATTCATGGCTTCGAGTAAACAAATTTTCCTAATCTTTCTGTTCAAGCGCCATCTAC”, the figure is 0.554; as for “GATGATTGTTCTCCCAGCTGATGAATTAGCGGTCTCGAGTAAACAAATTTTCCTAATCTTTCTGTTCAAGCGCCATCTAC”, 0.555; as for “GATGATTGTTCTCCCAGCTGATGAATTAGAAACATCGAGTAAACAAATTTTCCTAATCTTTCTGTTCAAGCGCCATCTAC”, 0.637. The figure for “GATGATTGTTCTCCCAGCTGATGAATTGGACACATCGAGTAAACAAATTTTCCTAATCTTTCTGTTCAAGCGCCATCTAC” is 0.519.

“GATGATTGTTCTCCCAGCTGATGAATTATTCGCGTCGAGTAAACAAATTTTCCTAATCTTTCTGTTCAAGCGCCATCTAC”: the binding signal (RPM ratio (pull-down/input)) amounted to 0.563. As for “GATGATTGTTCTCCCAGCTGATGAATTTATAGATTCGAGTAAACAAATTTTCCTAATCTTTCTGTTCAAGCGCCATCTAC”, the figure is 0.611; as for “GATGATTGTTCTCCCAGCTGATGAATTGAGGAAATCGAGTAAACAAATTTTCCTAATCTTTCTGTTCAAGCGCCATCTAC”, 0.246; as for “GATGATTGTTCTCCCAGCTGATGAATTATTTGTATCGAGTAAACAAATTTTCCTAATCTTTCTGTTCAAGCGCCATCTAC”, 2.84. For the sequence “GATGATTGTTCTCCCAGCTGATGAATTGTTGTTTTCGAGTAAACAAATTTTCCTAATCTTTCTGTTCAAGCGCCATCTAC”, the binding signal (RPM ratio (pull-down/input)) stood at 7.89. As for “GATGATTGTTCTCCCAGCTGATGAATTTCTAGGATCGAGTAAACAAATTTTCCTAATCTTTCTGTTCAAGCGCCATCTAC”, the figure is 0.191.

“GATGATTGTTCTCCCAGCTGATGAATTTCAAGCGTCGAGTAAACAAATTTTCCTAATCTTTCTGTTCAAGCGCCATCTAC”: the binding signal (RPM ratio (pull-down/input)) amounted to 0.409. For “GATGATTGTTCTCCCAGCTGATGAATTTCTAGTCTCGAGTAAACAAATTTTCCTAATCTTTCTGTTCAAGCGCCATCTAC”, the binding signal (RPM ratio (pull-down/input)) was 0.3. The figure for “GATGATTGTTCTCCCAGCTGATGAATTCAGGTACTCGAGTAAACAAATTTTCCTAATCTTTCTGTTCAAGCGCCATCTAC” is 0.5; for “GATGATTGTTCTCCCAGCTGATGAATTTGAAGTGTCGAGTAAACAAATTTTCCTAATCTTTCTGTTCAAGCGCCATCTAC” it is 0.698; for “GATGATTGTTCTCCCAGCTGATGAATTATGAGATTCGAGTAAACAAATTTTCCTAATCTTTCTGTTCAAGCGCCATCTAC” it is 0.682. “GATGATTGTTCTCCCAGCTGATGAATTCGTACACTCGAGTAAACAAATTTTCCTAATCTTTCTGTTCAAGCGCCATCTAC”: the binding signal (RPM ratio (pull-down/input)) came to 0.638. As for “GATGATTGTTCTCCCAGCTGATGAATTCACAGAGTCGAGTAAACAAATTTTCCTAATCTTTCTGTTCAAGCGCCATCTAC”, the figure is 0.193. With “GATGATTGTTCTCCCAGCTGATGAATTGAGTGGGTCGAGTAAACAAATTTTCCTAATCTTTCTGTTCAAGCGCCATCTAC”, the binding signal (RPM ratio (pull-down/input)) came to 0.538. As for “GATGATTGTTCTCCCAGCTGATGAATTCCGCGTGTCGAGTAAACAAATTTTCCTAATCTTTCTGTTCAAGCGCCATCTAC”, the figure is 4.38; as for “GATGATTGTTCTCCCAGCTGATGAATTTAAGGAATCGAGTAAACAAATTTTCCTAATCTTTCTGTTCAAGCGCCATCTAC”, 0.245.
